Our source for the self-cleavage values is the RNAGym collection of RNA variant scans (doi:10.7554/elife.90254).

To fix the notation:
B1: LINE1-mini (parent)
chain: GGCAGAGCUCAACACAGCGUGGCAAAGUGGCUGUGGCUAGACUGCC

The source gives no read counts; variants with many changes may rest on few reads.

The variants in the data set derive from B1. The experiment in a line: self-cleavage, relative activity (ratio to wild type); higher = more cleavage; in vitro, sequencing; the parent is a self-cleaving ribozyme.
For the variant G35U G40C C42A, the self-cleavage was 0.03. Turning to A39C G40C C45G, the self-cleavage came out at 0.2. Then C37U A39U G44U, with 0.04; and U34C G40U G44C, with 0.09. For U38A C42A C46G, the self-cleavage turned out to be 0.06.

For G36U C42G C46A, the self-cleavage came out at 0.17. In the case of U34A G40U C45G, the self-cleavage is 0.01. In the case of U34G G36C A39C it was 0.06; in that of G36C U38G C45U C46U, 0.03. For the variant U34G G36C G40U, the self-cleavage was determined as 0.05. Turning to G35U G36U C46A, the self-cleavage was 0.08.

With G35U C42A C46U, the self-cleavage was found to be 0.11. A39C G40U C46G: the self-cleavage turned out to be 0.11. Then G36U G40U C42G C46G, with 0.29. Regarding C42A G44A C46U, the self-cleavage worked out at 0.01. Then G35U G40U C42U, with 0.59; and G36C G40U C42A, with 0. On to U34A G35A A39G C45U, for which the self-cleavage came out at 0.01. Take A41G U43G G44C: the self-cleavage worked out at 0.04. On to G36C C37A U43C, for which the self-cleavage came to 0.02. Then A39U U43G G44C, with 0.15; and G36C A39G A41G, with 0.01; and U34C G40C C42A, with 0.09. Take A39C C42U U43G G44U C46U: the self-cleavage stood at 0.13. Take G36C U38G U43G G44C: the self-cleavage turned out to be 0.03. For U34C G36U C45A, the self-cleavage was found to be 0.01.

U38G C45A C46A: the self-cleavage came out at 0.02.

In the case of C37U A39G G44A, the self-cleavage was 0.08. With U38C C42G G44A, the self-cleavage was determined as 0.05. As to G36U A39G G40C, the self-cleavage came out at 0.05.

For the variant U38C G40U G44U C46G, the self-cleavage is 0.01. Then G35C U38C C45U, with 0.02; and G40C C42U C45U, with 0.08.

In the case of G35A G36C C45U, the self-cleavage stood at 0.26. Consider G36A C42U G44U, for which the self-cleavage was 0.04. For the variant G40C G44C C45G C46A, the self-cleavage came out at 0.

On to G36A U38G C42G C45A, for which the self-cleavage is 0.

Take G35C G36C U38A G40A: the self-cleavage was 0.02. Consider G36U G40U U43G, for which the self-cleavage amounted to 0.08.

For the variant U34C A41U G44A, the self-cleavage worked out at 0.2. With G40U C45A C46U, the self-cleavage was determined as 0.08.

Consider C37A G40A C42U, for which the self-cleavage came out at 0.09. Then U34G G40U G44A, with 0.13; and G35C A39G C42A G44U, with 0.03. In the case of G40U G44U C46G it was 0.01. Then G35C G44U C46A, with 0.04; and G40U U43C C46U, with 0.1. As for C37U C45G C46A, the self-cleavage stood at 0.08. Then G36U U38G C45G, with 0.04. Consider G36U C37G C45A, for which the self-cleavage amounted to 0.03. In the case of U34C C37A G40C, the self-cleavage was 0.14. In the case of U34C G36C U43A it was 0.02; in that of U38A G40U G44A, 0.01; in that of G36U C42A U43G C45A, 0.02. For the variant U38A G40C U43A G44U, the self-cleavage was 0.02. Turning to G35U G36U U38C, the self-cleavage was determined as 0.03. For G40U C42G G44U C45A C46G, the self-cleavage amounted to 0.21. Regarding U38G C42A C45A, the self-cleavage stood at 0.02. Take U38A C42U U43G: the self-cleavage was found to be 0. In the case of G35C U38G C46U, the self-cleavage was 0. Turning to A39C C42A C45G, the self-cleavage worked out at 0.04. On to C37G G40U C42U, for which the self-cleavage amounted to 0.04. Then G35A A39C C46A, with 0.05. In the case of G35C A39U C46A it was 0.06. As to A39C G40U C45G, the self-cleavage was 0.05. Take C37G A41G C45U: the self-cleavage stood at 0.04. As for A39U U43C C46A, the self-cleavage was found to be 0.07. In the case of A39U A41C G44A it was 0.04. Then G36A U38C C42U, with 0.06; and G36A A41C G44A, with 0.18; and G35A U43A C46U, with 0.03. In the case of A39U C42U C45A it was 0.06.

Take U43A C45A C46U: the self-cleavage was 0.36. In the case of U34C G36U G44U, the self-cleavage was determined as 0.13. On to G35C A39U G40C U43G, for which the self-cleavage was determined as 0.04. Then U34A G36A A39C C42A, with 0.03; and G35U G40U A41U, with 0.53. A39U U43A C45U: the self-cleavage is 0.1.

For the variant C37A G40U C46G, the self-cleavage came out at 0.07. On to G40C C42A U43A, for which the self-cleavage is 0.

As for G36C C42G U43G, the self-cleavage was 0.06. Then G35A G36A C42U, with 0.17; and U34G G35U G44U, with 0.05.

Turning to G36C A39U C42U, the self-cleavage amounted to 0.12.

C37A C42A G44A: the self-cleavage stood at 0.08. On to G35U G36A U38C, for which the self-cleavage worked out at 0.03. On to G35U A41C C45G, for which the self-cleavage came to 0.06. With U34C G40A C42G, the self-cleavage is 0.1. On to G36A A39G A41U, for which the self-cleavage turned out to be 0.1.

Regarding G35A U38A C45G, the self-cleavage is 0.

In the case of C37A U38A C42U, the self-cleavage was 0.05.

Take C37G A39G C46G: the self-cleavage stood at 0.03. For G35A A41U C46A, the self-cleavage came out at 0.05.

As for C37A A39U C42U, the self-cleavage is 0.03. Take G35U U43G C45A: the self-cleavage came out at 0.07. With U38C C42G U43G, the self-cleavage is 0.07. As for G35C U38C A39C, the self-cleavage was 0.08. In the case of A39U A41U C46U it was 0.33. Then C37A C42U C45G, with 0.03; and A41U C42G C46U, with 0.14; and U34C G35U C37A, with 0.09.

For the variant G36A C45U C46G, the self-cleavage worked out at 0.05. Take U38C C42A C46A: the self-cleavage came to 0.37. Turning to U38G A39C C45G, the self-cleavage is 0.06. Consider G36A A41G G44U, for which the self-cleavage worked out at 0.1. In the case of U38A A41U C42U, the self-cleavage was found to be 0.07. Then G35A G40C A41C U43A, with 0.03; and G35A A39U C45U, with 0.05; and U34A G36U U38G C42U, with 0. C42A G44C C46U: the self-cleavage came to 0.23. In the case of C37A C42A C45A it was 0.04; in that of U34G G35A U38G, 0.02. Regarding U34C G44A C46A, the self-cleavage came to 0.01.

On to C37U A41C C42U, for which the self-cleavage came out at 0.01. With U34A G40U A41C, the self-cleavage amounted to 0.05. As for G36U C37G A41C, the self-cleavage was determined as 0.01. As for C37U C42U U43A C45A, the self-cleavage was 0. Consider G36A G40C A41G, for which the self-cleavage stood at 0.04. As to G44U C45A C46U, the self-cleavage turned out to be 0. In the case of G35A A39G G44U C45U, the self-cleavage turned out to be 0.04. In the case of G40U U43G G44C it was 0.05. U34G C42A C45G: the self-cleavage was 0.03. Turning to G36U C37A A41G, the self-cleavage was 0.01.

Consider U38C G40A C45A C46G, for which the self-cleavage worked out at 0.01. In the case of U34A G36U C37A it was 0.04; in that of U34G U38G C46U, 0.03; in that of A41U G44C C46G, 0.1. Consider G36U C42U U43A, for which the self-cleavage turned out to be 0.08. Take G35C U38A C45G: the self-cleavage turned out to be 0.02. For A41C G44U C45A, the self-cleavage is 0.1. For the variant G35A A41U G44U, the self-cleavage is 0.05.

As to G35A A41U G44A, the self-cleavage is 0.01. In the case of A39U C42U G44U, the self-cleavage came out at 0.02. Turning to G40U C42A C45A, the self-cleavage was 0.11. In the case of G40A A41G C42A C46A it was 0.03; in that of G35A G36C G40A A41C C45U, 0.1; in that of C37A A39G C45A, 0.02. Turning to C37A A39G C45G, the self-cleavage worked out at 0.05.

U38A G40U C45G: the self-cleavage is 0.08. In the case of C37G A41U C46G it was 0; in that of C42G U43C G44U, 0.07. In the case of C37A C42G C46A it was 0.03; in that of G36A C37U G44C, 0.05; in that of G35U A39G G40A, 0.03. In the case of U38A C42G C45G it was 0.04. As to A39C C42U C46U, the self-cleavage was found to be 0.07. Then C37G A41C U43A, with 0.32; and C37U U38G C46G, with 0.61. In the case of U34A G35A A39C, the self-cleavage worked out at 0.01. Consider G35C G40A C42U, for which the self-cleavage turned out to be 0.04. Then G35U G36A U43G, with 0.2. Consider G36A A39C G40U C46A, for which the self-cleavage worked out at 0.1. In the case of G35U G40C A41C it was 0.04. Regarding U34C G35C U38A, the self-cleavage stood at 0. Consider G35U A39C A41C, for which the self-cleavage is 0.11. Consider C37A G40A A41C, for which the self-cleavage is 0.11. For the variant U34G C37U U43C, the self-cleavage worked out at 0.05. On to U34G G35A G36U, for which the self-cleavage came to 0.16. U34G G36U C46U: the self-cleavage was 0.07. In the case of C42G C45G C46G it was 0.08; in that of U34G A39G G44C, 0.03. Regarding G36U A41G C46U, the self-cleavage amounted to 0.03. On to G36U A41G C45U, for which the self-cleavage is 0.03. For G35A G36C C42U, the self-cleavage came to 0.15. In the case of C37U G40U A41C it was 0.18; in that of U43C C45G C46A, 0.03. In the case of G36A C37A U43C, the self-cleavage stood at 0.12.

Turning to A41C C42U U43G G44C C46A, the self-cleavage is 0.3. Then A39U G40C G44U, with 0.04; and G40U A41G C45G, with 0.05. With G36U A39U C45U, the self-cleavage worked out at 0.03. In the case of G36U A39U C45G, the self-cleavage stood at 0.

U34G A41G G44C: the self-cleavage was 0.01.
